Laboratory results taken from patent US20240150476A1 (Chugai, published 2024).

T1: soluble human IL-6R (human, UniProt P08887 20-357)
T1 construct: Expressed in CHO cells and purified from the supernatant; also called hsIL-6R; recombinant human IL6R
T1 sequence: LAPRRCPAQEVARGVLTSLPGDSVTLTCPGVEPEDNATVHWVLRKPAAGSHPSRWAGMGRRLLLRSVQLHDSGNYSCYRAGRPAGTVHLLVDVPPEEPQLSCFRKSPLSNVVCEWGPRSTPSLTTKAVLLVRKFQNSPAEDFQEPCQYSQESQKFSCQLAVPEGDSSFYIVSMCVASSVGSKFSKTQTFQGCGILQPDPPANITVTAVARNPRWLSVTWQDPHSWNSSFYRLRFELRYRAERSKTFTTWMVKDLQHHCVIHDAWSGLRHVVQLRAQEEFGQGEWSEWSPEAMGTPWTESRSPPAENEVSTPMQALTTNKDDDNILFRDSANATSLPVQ

T2: hsIL-6R-BAP1 (human, UniProt P08887 20-357, biotin on the C-terminal AviTag sequence (BirA))
T2 construct: also called hsIL-6R-Avitag; biotinylated soluble human IL6R
T2 sequence: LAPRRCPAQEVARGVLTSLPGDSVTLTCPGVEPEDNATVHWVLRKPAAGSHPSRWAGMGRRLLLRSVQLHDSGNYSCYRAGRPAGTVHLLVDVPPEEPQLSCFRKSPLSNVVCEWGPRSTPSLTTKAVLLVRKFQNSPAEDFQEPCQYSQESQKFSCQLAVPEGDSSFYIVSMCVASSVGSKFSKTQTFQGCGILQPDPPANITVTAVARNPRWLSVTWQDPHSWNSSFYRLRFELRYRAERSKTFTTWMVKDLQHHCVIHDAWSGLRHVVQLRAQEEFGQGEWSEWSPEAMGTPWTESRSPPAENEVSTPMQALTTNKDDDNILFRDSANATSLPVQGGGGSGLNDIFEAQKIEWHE


Assays:
soluble human IL-6R = target: T1, soluble human IL-6R; experiment: BLI (Octet), in the same way as in Example 3
hsIL-6R-BAP1 = target: T2, hsIL-6R-BAP1; experiment: BLI (Octet HTX), hsIL-6R-BAP1 on streptavidin sensor, protease-untreated molecule as analyte, 30 C
biotinylated plexin A1 = target: T3, biotinylated plexin A1 (human, UniProt Q9UIW2 27-1253, biotin on the AviTag sequence (BirA)); experiment: BLI (Octet), human plexin A1 on sensor, protease-untreated molecule as analyte
T3 construct: also called biotin-labeled human plexin A1; human plexin A1

Binder | binding result (hsIL-6R-BAP1) | binding result (biotinylated plexin A1) | other results
20A11-G1m/VK1-39-k0MT (other, IgG antibody-like molecule: anti-IL6R VHH 20A11 fused with human IgG1 CH1-hinge-CH2-CH3) heavy: EVQLVESGGGLVQPGGSLRLSCAASGSVFKINVMAWYRQAPGKGRELVAGIISGGSTSYADSVKGRFTISRDNAKNTLYLQMNSLRPEDTAVYYCAFITTESDYDLGRRYWGQGTLVTVSS[skipping human IgG1 constant region] light: DIQMTQSPSSLSASVGDRVTITCRASQSISSYLNWYQQKPGKAPKLLIYAASSLQSGVPSRFSGSGSGTDFTLTISSLQPEDFATYYCLQFDSYPLTFGGGTKVEIKRTVAAPSVFIFPPSDEQLKSGTASVVCLLNNFYPREAKVQWKVDNALQSGNSQESVTEQDSKDSTYSLSSTLTLSKADYEKHKVYACEVTHQGLSSPVTKSFNRGEC |  |  | binding result (soluble human IL-6R): binds
IL6R90H1004/VK1-39-k0MT (other, Not protease-treated) heavy: EVQLVESGGGLVQPGGSLRLSCAASGFTFDDYGMSWVRQAPGKALEWVSAISWNGNNTYYTESMKGRFTISRDNAKNTLYLQMNSLRPEDTAVYYCVKGSTAIVGVPPTYPDEYDYWGQGTLVTVSGGSGLSGRSDNHGSSGGSS[skipping human IgG1 constant region] light: DIQMTQSPSSLSASVGDRVTITCRASQSISSYLNWYQQKPGKAPKLLIYAASSLQSGVPSRFSGSGSGTDFTLTISSLQPEDFATYYCLQFDSYPLTFGGGTKVEIKRTVAAPSVFIFPPSDEQLKSGTASVVCLLNNFYPREAKVQWKVDNALQSGNSQESVTEQDSKDSTYSLSSTLTLSKADYEKHKVYACEVTHQGLSSPVTKSFNRGEC | no binding |  | 
IL6R90H1005/VK1-39-k0MT (other, Not protease-treated) heavy: EVQLVESGGGLVQPGGSLRLSCAASGFTFDDYGMSWVRQAPGKALEWVSAISWNGNNTYYTESMKGRFTISRDNAKNTLYLQMNSLRPEDTAVYYCVKGSTAIVGVPPTYPDEYDYWGQGTLVTVSSASTKLSGRSDNHGGPSVFPLAPSSKSTSGGTAALGCLVKDYFPEPVTVSWNSGALTSGVHTFPAVLQSSGLYSLSSVVTVPSSSLGTQTYICNVNHKPSNTKVDKKV[skipping human IgG1 Fc] light: DIQMTQSPSSLSASVGDRVTITCRASQSISSYLNWYQQKPGKAPKLLIYAASSLQSGVPSRFSGSGSGTDFTLTISSLQPEDFATYYCLQFDSYPLTFGGGTKVEIKRTVAAPSVFIFPPSDEQLKSGTASVVCLLNNFYPREAKVQWKVDNALQSGNSQESVTEQDSKDSTYSLSSTLTLSKADYEKHKVYACEVTHQGLSSPVTKSFNRGEC | no binding |  | 
20A11-G1m/VL1-44-lamL (other, IgG antibody-like molecule) heavy: EVQLVESGGGLVQPGGSLRLSCAASGSVFKINVMAWYRQAPGKGRELVAGIISGGSTSYADSVKGRFTISRDNAKNTLYLQMNSLRPEDTAVYYCAFITTESDYDLGRRYWGQGTLVTVSS[skipping human IgG1 constant region] light: QSVLTQPPSASGTPGQRVTISCSGSSSNIGSNTVNWYQQLPGTAPKLLIYSNNQRPSGVPDRFSGSKSGTSASLAISGLQSEDEADYYCGTWDGGVTGVVFGGGTKLTVLGQPKAAPSVTLFPPSSEELQANKATLVCLISDFYPGAVTVAWKADSSPVKAGVETTTPSKQSNNKYAASSYLSLTPEQWKSHRSYSCQVTHEGSTVEKTVAPTECS |  |  | binding result (soluble human IL-6R): binds
PX02-R4_017-G1mISHI01/VK1-39-k0MT (other, IgG antibody-like molecule; Not protease-treated) heavy: QVQLVESGGGLVQPGGSLRLSCTASGISFSISTMGWYRQAPGKQRELVATITSGGEAYYANSMKDRFTISRDNAENTVYLQMNRLKPEDSAVYYCNTKFPWSTDWNARGQGTQVTVSGGSGLSGRSDNHGSSGGSS[skipping human IgG1 constant region] light: DIQMTQSPSSLSASVGDRVTITCRASQSISSYLNWYQQKPGKAPKLLIYAASSLQSGVPSRFSGSGSGTDFTLTISSLQPEDFATYYCLQFDSYPLTFGGGTKVEIKRTVAAPSVFIFPPSDEQLKSGTASVVCLLNNFYPREAKVQWKVDNALQSGNSQESVTEQDSKDSTYSLSSTLTLSKADYEKHKVYACEVTHQGLSSPVTKSFNRGEC |  | no binding | 
PX02-R2_001-G1mISHI01/VK1-39-k0MT (other, Not protease-treated) heavy: QLQLVESGGGLVQPGGSLRLSCTASGISFSISTMGWYRQAPGKQRELVATITSGGEAYYANSMKDRFTISRDNAENTVYLQMNRLKPEDSAVYYCNTKFPWSTDWDSRGQGTQVTVSGGSGLSGRSDNHGSSGGSS[skipping human IgG1 constant region] light: DIQMTQSPSSLSASVGDRVTITCRASQSISSYLNWYQQKPGKAPKLLIYAASSLQSGVPSRFSGSGSGTDFTLTISSLQPEDFATYYCLQFDSYPLTFGGGTKVEIKRTVAAPSVFIFPPSDEQLKSGTASVVCLLNNFYPREAKVQWKVDNALQSGNSQESVTEQDSKDSTYSLSSTLTLSKADYEKHKVYACEVTHQGLSSPVTKSFNRGEC |  | no binding | 
PX03-R4_009-G1mISHI01/VK1-39-k0MT (other, IgG antibody-like molecule; Not protease-treated) heavy: QLQLVESGGGLVQPGGSLRLSCTASGISFSISTMGWYRQAPGKQRELVATIASGGEAYYANSVKGRFTISREYAENTVFLQMNRLKPEDSAVYYCNTKFPWSTDWNARGQGTQVTVSGGSGLSGRSDNHGSSGGSS[skipping human IgG1 constant region] light: DIQMTQSPSSLSASVGDRVTITCRASQSISSYLNWYQQKPGKAPKLLIYAASSLQSGVPSRFSGSGSGTDFTLTISSLQPEDFATYYCLQFDSYPLTFGGGTKVEIKRTVAAPSVFIFPPSDEQLKSGTASVVCLLNNFYPREAKVQWKVDNALQSGNSQESVTEQDSKDSTYSLSSTLTLSKADYEKHKVYACEVTHQGLSSPVTKSFNRGEC |  | no binding | 
PX02-R4_004-G1mISHI01/VK1-39-k0MT (other, IgG antibody-like molecule; Not protease-treated) heavy: QVQLVESGGGLVQPGGSLRLSCTASGISFSISTMGWYRQAPGKQRELVATITSGGEAYYANSMKDRFTISRDNAENTVYLQMNRLKPEDSAVYYCNTKFPWSTDWDSRGQGTQVTVSGGSGLSGRSDNHGSSGGSS[skipping human IgG1 constant region] light: DIQMTQSPSSLSASVGDRVTITCRASQSISSYLNWYQQKPGKAPKLLIYAASSLQSGVPSRFSGSGSGTDFTLTISSLQPEDFATYYCLQFDSYPLTFGGGTKVEIKRTVAAPSVFIFPPSDEQLKSGTASVVCLLNNFYPREAKVQWKVDNALQSGNSQESVTEQDSKDSTYSLSSTLTLSKADYEKHKVYACEVTHQGLSSPVTKSFNRGEC |  | no binding | 

More lines, main results first:

binding result (hsIL-6R-BAP1) | binding result (biotinylated plexin A1) | Binder | other results
no binding |  | IL6R90H1006/VK1-39-k0MT (other, Not protease-treated) heavy: EVQLVESGGGLVQPGGSLRLSCAASGFTFDDYGMSWVRQAPGKALEWVSAISWNGNNTYYTESMKGRFTISRDNAKNTLYLQMNSLRPEDTAVYYCVKGSTAIVGVPPTYPDEYDYWGQGTLVTVSSASTKSGGSGLSGRSDNHGSSGGGPSVFPLAPSSKSTSGGTAALGCLVKDYFPEPVTVSWNSGALTSGVHTFPAVLQSSGLYSLSSVVTVPSSSLGTQTYICNVNHKPSNTKVDKKV[skipping human IgG1 Fc] light: DIQMTQSPSSLSASVGDRVTITCRASQSISSYLNWYQQKPGKAPKLLIYAASSLQSGVPSRFSGSGSGTDFTLTISSLQPEDFATYYCLQFDSYPLTFGGGTKVEIKRTVAAPSVFIFPPSDEQLKSGTASVVCLLNNFYPREAKVQWKVDNALQSGNSQESVTEQDSKDSTYSLSSTLTLSKADYEKHKVYACEVTHQGLSSPVTKSFNRGEC | 
no binding |  | IL6R90H1002/VK1-39-k0MT (other, Not protease-treated) heavy: EVQLVESGGGLVQPGGSLRLSCAASGFTFDDYGMSWVRQAPGKALEWVSAISWNGNNTYYTESMKGRFTISRDNAKNTLYLQMNSLRPEDTAVYYCVKGSTAIVGVPPTYPDEYDYWGQGTLVTVSSASSGGSGLSGRSDNHGSSGGTKGPSVFPLAPSSKSTSGGTAALGCLVKDYFPEPVTVSWNSGALTSGVHTFPAVLQSSGLYSLSSVVTVPSSSLGTQTYICNVNHKPSNTKVDKKV[skipping human IgG1 Fc] light: DIQMTQSPSSLSASVGDRVTITCRASQSISSYLNWYQQKPGKAPKLLIYAASSLQSGVPSRFSGSGSGTDFTLTISSLQPEDFATYYCLQFDSYPLTFGGGTKVEIKRTVAAPSVFIFPPSDEQLKSGTASVVCLLNNFYPREAKVQWKVDNALQSGNSQESVTEQDSKDSTYSLSSTLTLSKADYEKHKVYACEVTHQGLSSPVTKSFNRGEC | 
 | no binding | PX03-R2_006-G1mISHI01/VK1-39-k0MT (other, IgG antibody-like molecule; Not protease-treated) heavy: QLQLVESGGGLVQPGGSLRLSCTASGISFSISTMGWYRQAPGKQRELVATIASGGEAYYANSVKGRFTISRDNAENTVYLQMNRLKPEDSAVYYCNTKFPWSTDWNARGQGTQVTVSGGSGLSGRSDNHGSSGGSS[skipping human IgG1 constant region] light: DIQMTQSPSSLSASVGDRVTITCRASQSISSYLNWYQQKPGKAPKLLIYAASSLQSGVPSRFSGSGSGTDFTLTISSLQPEDFATYYCLQFDSYPLTFGGGTKVEIKRTVAAPSVFIFPPSDEQLKSGTASVVCLLNNFYPREAKVQWKVDNALQSGNSQESVTEQDSKDSTYSLSSTLTLSKADYEKHKVYACEVTHQGLSSPVTKSFNRGEC | 
